Source: PubChem BioAssay (NCATS)
Inconclusive means that the source gave no clear call. Such entries were picked first, then a sample of the others. Active and inactive are the calls of the source. The call rests on the fitted dose curve; in most records, active means well fitted cell-killing curve with a large enough effect; inconclusive means small, poorly fitted or top-dose-only effect; inactive means flat fitted curve, though single readings scatter.

Test: Cell Viability - NIH 3T3 (AID 541);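 further: plate controls were DMSO alone for no effect and tamoxifen positive control for full effect; nearly all actives have a fitted effect of over 25% in size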
Settings: NIH 3T3 cell viability, qHTS; activity change, negative = cytotoxicity: at 92.2 µM (top of the series)
Description: NIH Chemical Genomics Center [NCGC]
NIH Molecular Libraries Screening Centers Network [MLSCN]
National Institutes of Environmental Health Sciences [NIEHS]
National Toxicology Program [NTP]
We have developed a 1536-well cell-based assay for quantitative high throughput screening (qHTS) against a number of cell lines to determine in vitro cytotoxicity of small molecules. This particular assay uses the NIH 3T3 fibroblast cell line which is established from NIH Swiss mouse embryo.
NCGC Assay Protocol Summary:
The CellTiter-Glo luminescent cell viability assay (Promega) is a homogeneous method to measure the number of viable cells in culture. The end point readout of this assay is based on quantitation of intracellular ATP, an indicator of metabolic activity, using the luciferase reaction. Luciferase catalyzes the oxidation of beetle Luciferin to oxyluciferin and light in the presence of ATP. The luminescent signal is proportional to amount of ATP present.
Using the CellTiter-Glo luminescent cell viability assay, the amount of cellular ATP was measured in the NIH 3T3 cell line with complete culture medium following compound treatment for 40 hours. The assay was performed in opaque white Kalypsys 1536-well plates. In the screen, tamoxifen and doxorubicin were used as positive controls. Library compounds were measured for their ability to cause acute toxicity in the cell line, as reflected by a decrease in intracellular ATP levels, in a concentration-dependent manner. […] AC50 values were determined from concentration-response data modeled with the standard Hill equation.
qHTS protocol for CellTiter Glo NIH 3T3 cellular assay
[Step] [Parameter] [Value] [Description]
1. Reagent; 5 uL; 1000 NIH 3T3 cells/well
2. Time; 5 hr; 37 °C incubation
4. Controls; 23 nL; Tamoxifen 0.34 uM to 100 uM & Doxorubicin 0.02 nM to 100 uM
5. Time; 40 hr; 37 °C incubation
6. Reagent; 5 uL; CellTiter Glo reagent
7. Time; 20 min; Room Temperature
8. Detection; Luminescence; Viewlux plate reader
Keywords: cell viability, cytotoxicity, NIH 3T3 cell line, luminescence, NTPHTS, NTPHTS_NCGC, NIEHS, EPA, DSSTox, MLSMR, MLSCN, NIH Roadmap, qHTS, NCGC
In the case of `CC(=O)OC(C(=O)c1ccccc1)c1ccccc1` (stereo not given), the activity change, negative = cytotoxicity is reported as inconclusive: -23.9%.
With `OCC(CBr)(CBr)CBr` the activity change, negative = cytotoxicity was inconclusive: -33.8%.
In the case of `Nc1cc([N+](=O)[O-])ccc1O`, the activity change, negative = cytotoxicity is reported as inconclusive: -47%.
With `Cc1cc2nc(N)sc2cc1C` the activity change, negative = cytotoxicity was inconclusive: -47.1%.
In the case of `CCCCCNCCCCC`, the activity change, negative = cytotoxicity is reported as inactive: 5.47%.
For `CCCCC/C=C/C=C/C=O`, the activity change, negative = cytotoxicity was active: -100%.
With `O=CC(=O)c1ccccc1` the activity change, negative = cytotoxicity was inconclusive: -53.1%.
In the case of `COc1ccc(C(=O)Nc2ccccc2)cc1[N+](=O)[O-]`, the activity change, negative = cytotoxicity is reported as inconclusive: -44.9%.
With `CNC(=O)N(c1ccccc1)c1ccccc1` the activity change, negative = cytotoxicity was inactive: 0.945%.
With `O=[N+]([O-])c1ccc(CCO)cc1` the activity change, negative = cytotoxicity was inconclusive: -35.5%.
In the case of `Cc1ccc(S(=O)(=O)NC2CCCCC2)cc1`, the activity change, negative = cytotoxicity is reported as inactive: -10.8%.
With `Oc1ccc2c(c1)OCO2` the activity change, negative = cytotoxicity was inconclusive: -36.4%.
With `Nc1cnn([C@@H]2O[C@H](CO)[C@@H](O)[C@H]2O)c(=O)n1` the activity change, negative = cytotoxicity was inactive: 4.75%.
In the case of `Fc1ccccc1`, the activity change, negative = cytotoxicity is reported as inactive: -15%.
In the case of `CCNC(=S)NCC`, the activity change, negative = cytotoxicity is reported as inconclusive: -34.6%.
For `COc1ccccc1[N+](=O)[O-]`, the activity change, negative = cytotoxicity was inactive: -26%.
With `O=P(O)(OCc1ccccc1)OCc1ccccc1` the activity change, negative = cytotoxicity was inactive: -15.9%.
In the case of `O=[N+]([O-])c1ccc(F)cc1F`, the activity change, negative = cytotoxicity is reported as inconclusive: -30.7%.
For `Nc1ccc(N=Nc2ccccc2)c(N)c1`, the activity change, negative = cytotoxicity was inconclusive: -54.2%.
With `C=Cc1ccccc1Cl` the activity change, negative = cytotoxicity was inactive: -6.35%.
With `CCc1ccccc1` the activity change, negative = cytotoxicity was inactive: -13%.
For `CC(=O)OCc1ccc2c(c1)OCO2`, the activity change, negative = cytotoxicity was inconclusive: -33.9%.
For `CCCC(=O)OC(=O)CCC`, the activity change, negative = cytotoxicity was inconclusive: -32%.
For `CC(C)(O)C(=O)O`, the activity change, negative = cytotoxicity was inactive: -10.7%.
For `Cc1ccc(Cl)cc1N`, the activity change, negative = cytotoxicity was inactive: -22.5%.
For `O=C(O)CNC(=O)c1ccc([N+](=O)[O-])cc1`, the activity change, negative = cytotoxicity was inactive: -20.3%.
In the case of `O=c1[nH]ncc2ccccc12`, the activity change, negative = cytotoxicity is reported as active: -142%.
With `Brc1cc(Br)c(Oc2cc(Br)c(Br)cc2Br)cc1Br` the activity change, negative = cytotoxicity was inactive: -6.22%.
With `CCOC(=O)C1OC1c1ccccc1` (stereo not given) the activity change, negative = cytotoxicity was inconclusive: -115%.
For `O=C(O)c1c(Cl)cccc1Cl`, the activity change, negative = cytotoxicity was inactive: -20.9%.
In the case of `Cc1ccc(N)cc1[N+](=O)[O-]`, the activity change, negative = cytotoxicity is reported as inconclusive: -32.5%.
For `CC(/C=C/C=C(C)/C=C/C(=O)O)=C\C=C\C=C(C)\C=C\C=C(C)\C=C\C(=O)O`, the activity change, negative = cytotoxicity was inconclusive: -60%.
In the case of `CCCCCCCCCCCCCCC1CO1` (stereo not given), the activity change, negative = cytotoxicity is reported as inactive: -7.81%.
With `Cc1ccccc1C(=O)O` the activity change, negative = cytotoxicity was inactive: -21.4%.
In the case of `COc1cc(-c2ccc(N=C=O)c(OC)c2)ccc1N=C=O`, the activity change, negative = cytotoxicity is reported as inconclusive: -34.4%.
In the case of `Cc1ccc(C)c(N)c1`, the activity change, negative = cytotoxicity is reported as inactive: -15.5%.
In the case of `CC(=O)c1ccc([N+](=O)[O-])cc1`, the activity change, negative = cytotoxicity is reported as inactive: 0.475%.
With `O=C1OC(=O)c2ccccc21` the activity change, negative = cytotoxicity was inconclusive: -69.3%.
For `Cc1ccc(S(N)(=O)=O)cc1`, the activity change, negative = cytotoxicity was inconclusive: -36.4%.
In the case of `C=C(C)C(=O)OC`, the activity change, negative = cytotoxicity is reported as inactive: -0.524%.
